Data reported in the BET-seq Pho4 binding data (Le et al. 2018).
Some of the results follow. These are noisy estimates, calculated here from bound and input reads.

What follows are sequences tested against T1, Pho4 (S. cerevisiae) (UniProt P07270) (assay: relative binding free energy (BET-seq); higher = weaker binding). Settings: reference: library average.
T1 sequence: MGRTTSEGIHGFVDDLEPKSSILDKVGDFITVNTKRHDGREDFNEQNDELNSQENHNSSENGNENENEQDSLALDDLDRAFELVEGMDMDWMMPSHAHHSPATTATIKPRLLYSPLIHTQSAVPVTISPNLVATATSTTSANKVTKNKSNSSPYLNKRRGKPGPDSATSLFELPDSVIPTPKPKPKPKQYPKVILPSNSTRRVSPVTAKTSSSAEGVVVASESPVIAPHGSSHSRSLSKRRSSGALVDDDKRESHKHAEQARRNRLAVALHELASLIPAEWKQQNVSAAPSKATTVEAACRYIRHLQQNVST
For TACTTCACGTGGGTGA, the “relative binding free energy” value was 0.13 kcal/mol.
CGTGGCACGTGGGAGC was tested, and the “relative binding free energy” value was -0.22 kcal/mol.
For ATGTTCACGTGTAAAA, the “relative binding free energy” value was 0.41 kcal/mol.
In the case of CCTGTCACGTGGGAGG, the “relative binding free energy” value is reported as -0.05 kcal/mol.
With AAGTACACGTGTGTGT the “relative binding free energy” value was -0.06 kcal/mol.
In the case of AGTAGCACGTGAGGAA, the “relative binding free energy” value is reported as 0.2 kcal/mol.
In the case of AATGGCACGTGTGGTA, the “relative binding free energy” value is reported as -0.03 kcal/mol.
In the case of GTCTTCACGTGAGGGC, the “relative binding free energy” value is reported as 0.54 kcal/mol.
TATTTCACGTGGGATC was tested, and the “relative binding free energy” value was 0.2 kcal/mol.
With TGGCACACGTGGTAGG the “relative binding free energy” value was 0 kcal/mol.
With AAATGCACGTGCTGTT the “relative binding free energy” value was 0.1 kcal/mol.
For TTATGCACGTGAGGAC, the “relative binding free energy” value was 0.19 kcal/mol.
ATTTACACGTGAGTAG was tested, and the “relative binding free energy” value was 0.19 kcal/mol.
In the case of TTGGGCACGTGTTCAT, the “relative binding free energy” value is reported as -0.1 kcal/mol.
ATGGTCACGTGCCTTA was tested, and the “relative binding free energy” value was 0.22 kcal/mol.
With TGCATCACGTGTTTTT the “relative binding free energy” value was 0.16 kcal/mol.
GTAGGCACGTGTGTGT was tested, and the “relative binding free energy” value was -0.04 kcal/mol.
With GGATACACGTGAGGAT the “relative binding free energy” value was 0.29 kcal/mol.
For GTTCACACGTGTAAGG, the “relative binding free energy” value was 0.19 kcal/mol.
AATCGCACGTGGGATG was tested, and the “relative binding free energy” value was -0.17 kcal/mol.
In the case of GGGATCACGTGAGTGT, the “relative binding free energy” value is reported as 0.3 kcal/mol.
GTTTTCACGTGGTGAC was tested, and the “relative binding free energy” value was 0.39 kcal/mol.
With TATAGCACGTGTTATA the “relative binding free energy” value was -0.04 kcal/mol.
For GGAGTCACGTGCGTTA, the “relative binding free energy” value was 0.1 kcal/mol.
TTGGTCACGTGACGCT was tested, and the “relative binding free energy” value was 0.16 kcal/mol.
TTGTACACGTGAGGGC was tested, and the “relative binding free energy” value was 0.33 kcal/mol.
In the case of TGATTCACGTGTCGTA, the “relative binding free energy” value is reported as 0.12 kcal/mol.
For AGGGACACGTGTTTAT, the “relative binding free energy” value was 0.06 kcal/mol.
With CAAGGCACGTGTTTGT the “relative binding free energy” value was -0.13 kcal/mol.
In the case of CAGGGCACGTGACTGG, the “relative binding free energy” value is reported as 0.11 kcal/mol.
With GGATGCACGTGCGGTA the “relative binding free energy” value was -0.06 kcal/mol.
For CGCGACACGTGGTGTG, the “relative binding free energy” value was -0.11 kcal/mol.
For CAGTGCACGTGTGTGG, the “relative binding free energy” value was 0.09 kcal/mol.
For TGCGTCACGTGCTTTG, the “relative binding free energy” value was 0 kcal/mol.
GTTATCACGTGGTGCC was tested, and the “relative binding free energy” value was 0.18 kcal/mol.
In the case of GAGTGCACGTGTATGA, the “relative binding free energy” value is reported as 0.11 kcal/mol.
GTAATCACGTGGTATT was tested, and the “relative binding free energy” value was 0.12 kcal/mol.
TGTTTCACGTGCGATG was tested, and the “relative binding free energy” value was 0.28 kcal/mol.
TAAGGCACGTGCGTGG was tested, and the “relative binding free energy” value was -0.28 kcal/mol.
In the case of TGGTCCACGTGGGGCT, the “relative binding free energy” value is reported as -0.12 kcal/mol.
TTCATCACGTGTTCGT was tested, and the “relative binding free energy” value was 0.21 kcal/mol.
In the case of AACTACACGTGGTGTG, the “relative binding free energy” value is reported as -0.05 kcal/mol.
In the case of GGCGTCACGTGGGCAT, the “relative binding free energy” value is reported as -0.12 kcal/mol.
With GCTCTCACGTGGGGTA the “relative binding free energy” value was 0.22 kcal/mol.
For TATTGCACGTGTACGA, the “relative binding free energy” value was 0.03 kcal/mol.
TTGGTCACGTGATTGA was tested, and the “relative binding free energy” value was 0.27 kcal/mol.
In the case of AAGGTCACGTGGGTAC, the “relative binding free energy” value is reported as -0.11 kcal/mol.
For TGCTACACGTGGGGTA, the “relative binding free energy” value was -0.17 kcal/mol.
In the case of GGGGTCACGTGCTAGG, the “relative binding free energy” value is reported as 0.12 kcal/mol.
GGGGGCACGTGTCGAG was tested, and the “relative binding free energy” value was -0.07 kcal/mol.
With TGGGCCACGTGAAGGG the “relative binding free energy” value was 0.27 kcal/mol.
For GTGGACACGTGATTCA, the “relative binding free energy” value was 0.28 kcal/mol.
With GAGTTCACGTGTCTTT the “relative binding free energy” value was 0.3 kcal/mol.
With CAGAGCACGTGGGGTT the “relative binding free energy” value was -0.35 kcal/mol.
For GCCTTCACGTGGAGTT, the “relative binding free energy” value was 0.44 kcal/mol.
For AATTTCACGTGTGAAT, the “relative binding free energy” value was 0.25 kcal/mol.
For CTGATCACGTGGTGTT, the “relative binding free energy” value was -0.07 kcal/mol.
In the case of CTTATCACGTGTGTTT, the “relative binding free energy” value is reported as 0.1 kcal/mol.
With TAAGGCACGTGTGATG the “relative binding free energy” value was -0.05 kcal/mol.
In the case of GCCTTCACGTGTGGGT, the “relative binding free energy” value is reported as 0.24 kcal/mol.
TTGAGCACGTGGGCCT was tested, and the “relative binding free energy” value was -0.01 kcal/mol.
With TACGGCACGTGAGGGT the “relative binding free energy” value was 0.1 kcal/mol.
For GTGAGCACGTGGGGCC, the “relative binding free energy” value was -0.13 kcal/mol.
For CGGTACACGTGTAAGT, the “relative binding free energy” value was 0.18 kcal/mol.
GTATTCACGTGATATT was tested, and the “relative binding free energy” value was 0.15 kcal/mol.
CGGGTCACGTGATTAG was tested, and the “relative binding free energy” value was 0.17 kcal/mol.
For GGGCTCACGTGGTGCA, the “relative binding free energy” value was 0.21 kcal/mol.
GTTCGCACGTGTTCGG was tested, and the “relative binding free energy” value was 0.13 kcal/mol.
For TTTTGCACGTGGTGTG, the “relative binding free energy” value was -0.05 kcal/mol.
CGGCGCACGTGGTGGA was tested, and the “relative binding free energy” value was -0.11 kcal/mol.
With GTAGGCACGTGGGCTT the “relative binding free energy” value was -0.21 kcal/mol.
With ATTTGCACGTGGAATT the “relative binding free energy” value was -0.04 kcal/mol.
ACTGTCACGTGGAGAT was tested, and the “relative binding free energy” value was 0.24 kcal/mol.
TATAGCACGTGTTATG was tested, and the “relative binding free energy” value was 0 kcal/mol.
TGGGACACGTGCGCGT was tested, and the “relative binding free energy” value was -0.1 kcal/mol.
For GTTATCACGTGATGTC, the “relative binding free energy” value was 0.52 kcal/mol.
With TGGGACACGTGATGAA the “relative binding free energy” value was 0.12 kcal/mol.
With GGAGGCACGTGAAGCG the “relative binding free energy” value was 0.05 kcal/mol.
With GTATGCACGTGTACGA the “relative binding free energy” value was 0.14 kcal/mol.
AGTATCACGTGATAAG was tested, and the “relative binding free energy” value was 0.29 kcal/mol.
ATAGGCACGTGCCGGA was tested, and the “relative binding free energy” value was 0.03 kcal/mol.
For GTGTACACGTGAACTG, the “relative binding free energy” value was 0.22 kcal/mol.
With CTGGACACGTGGGCGT the “relative binding free energy” value was -0.17 kcal/mol.
In the case of ATTTGCACGTGCGTAA, the “relative binding free energy” value is reported as -0.02 kcal/mol.
In the case of GGGAGCACGTGTGGTC, the “relative binding free energy” value is reported as -0.02 kcal/mol.
ATGGACACGTGATTGA was tested, and the “relative binding free energy” value was 0.11 kcal/mol.
In the case of TATAACACGTGGGAGG, the “relative binding free energy” value is reported as -0.23 kcal/mol.
With CGGTGCACGTGCTGGG the “relative binding free energy” value was -0.01 kcal/mol.
In the case of TACGTCACGTGGGAGT, the “relative binding free energy” value is reported as -0.01 kcal/mol.
For ATGTGCACGTGTTGCT, the “relative binding free energy” value was -0.07 kcal/mol.
With TATGTCACGTGAGTCA the “relative binding free energy” value was 0.29 kcal/mol.
In the case of CTGAGCACGTGGGGAC, the “relative binding free energy” value is reported as -0.1 kcal/mol.
GGGTGCACGTGTGTCT was tested, and the “relative binding free energy” value was 0.05 kcal/mol.
AGAGGCACGTGTGGGC was tested, and the “relative binding free energy” value was 0.03 kcal/mol.
For GAGCGCACGTGGAGTG, the “relative binding free energy” value was -0.14 kcal/mol.
With TTTAACACGTGGGACG the “relative binding free energy” value was 0 kcal/mol.
In the case of TGCTGCACGTGAGATG, the “relative binding free energy” value is reported as 0.25 kcal/mol.
In the case of CTGGTCACGTGTCAGG, the “relative binding free energy” value is reported as 0.08 kcal/mol.
For TGAGGCACGTGGGCGG, the “relative binding free energy” value was -0.24 kcal/mol.
With AAAAACACGTGGTAGT the “relative binding free energy” value was 0.11 kcal/mol.
GTTAGCACGTGCGGCT was tested, and the “relative binding free energy” value was -0.18 kcal/mol.
In the case of TAGAACACGTGGTTTT, the “relative binding free energy” value is reported as -0.1 kcal/mol.
GAGTTCACGTGATTTA was tested, and the “relative binding free energy” value was 0.39 kcal/mol.
For TTAGACACGTGACTGG, the “relative binding free energy” value was 0.21 kcal/mol.
TTCGACACGTGGGGTG was tested, and the “relative binding free energy” value was -0.08 kcal/mol.
TTTGACACGTGTTAGA was tested, and the “relative binding free energy” value was 0.01 kcal/mol.
For ATTTTCACGTGAAATT, the “relative binding free energy” value was 0.28 kcal/mol.
AAGAGCACGTGGACGT was tested, and the “relative binding free energy” value was 0.01 kcal/mol.
In the case of TAATTCACGTGAGCGT, the “relative binding free energy” value is reported as 0.23 kcal/mol.
For CGGTTCACGTGGCGTT, the “relative binding free energy” value was 0.32 kcal/mol.
TGGTACACGTGGAGAT was tested, and the “relative binding free energy” value was 0.13 kcal/mol.
For AAGAGCACGTGTTGAA, the “relative binding free energy” value was 0.05 kcal/mol.
In the case of GGTACCACGTGAAGGG, the “relative binding free energy” value is reported as 0.22 kcal/mol.
TCAGTCACGTGGGATT was tested, and the “relative binding free energy” value was 0.01 kcal/mol.
With ACTTTCACGTGGTTTT the “relative binding free energy” value was 0.35 kcal/mol.
